B1: TEV protease; numbered along this chain (parent)
chain: MGESLFKGPRDYNPISSSICHLTNESDGHTTSLYGIGFGPFIITNKHLFRRNNGTLVVQSLHGVFKVKDTTTLQQHLVDGRDMIIIRMPKDFPPFPQKLKFREPQREERICLVTTNFQTKSMSSMVSDTSCTFPSGDGIFWKHWIQTKDGQCGSPLVSTRDGFIVGIHSASNFTNTNNYFTSVPKNFMELLTNQEAQQWVSGWRLNADSVLWGGHKVFMVKPEEPFQPVKEATQL

This assay covers variants of B1. Briefly: raw area under fraction-flipped curve 0-4 h after induction (AUC4h, not background-subtracted), DNA-recorder readout of cleavage of the substrate (dimensionless); higher = more cleavage of the substrate by the protease variant. The settings on record: temperature: 34 °C; time window: 0-4 h after rhamnose induction.

Nine variants from the supplement of paper PMC12217912 can be followed below.

The other results are listed elsewhere or left out. Sequences were assembled here from the parent chain. Inactive controls read about 0.05.
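Note: Bxb1 expression induced with 0.2% (w/v) L-rhamnose at OD600 near 0.5, cultures sampled hourly, flipped fraction per protease–substrate barcode pair counted by paired-end Illumina sequencing.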

In the case of MGESLFKGPRDYNPISSSICHLTNESDGHTTSLYGIGFGPFIITNKHLFRRNNGTLVVQSLHGVFKVKDTTTLQQHLVDGRDMIIIRMPKDFPPFPQKLKFREPQREERICLVTTNFQTKSMISMVSDTSCTFPSGDGIFWKHWIQTKDGQCGSPLVSTRDGFIVGIHSASNFTNTNNYFTSVPKNFMELLTNQEAQQWVSGWRLNADSVLWGGHKVFMVKPEEPFQPVKEATQL [S123I], the “area with substrate ENLYFQC” value is 0.114, the “area with substrate ENLYFQD” value was 0.0837, the “area with substrate ENLYFQF” value was 0.069 and the “area with substrate ENLYFQG” value came to 0.102. Besides, the “area with substrate ENLYFQI” value came to 0.0623, the “area with substrate ENLYFQK” value came out at 0.0693, the “area with substrate ENLYFQL” value was found to be 0.0651 and the “area with substrate ENLYFQM” value was 0.0858. Besides, the “area with substrate ENLYFQN” value stood at 0.0815, the “area with substrate ENLYFQP” value was determined as 0.0697, the “area with substrate ENLYFQR” value turned out to be 0.0576 and the “area with substrate ENLYFQS” value came to 0.101. Also, the “area with substrate ENLYFQT” value was 0.0606 and the “area with substrate ENLYFQW” value came to 0.0564.

As to MGESLFKGPRDYNPISSSICHLTNESDGHTTSLYGIGFGPFIITNKHLFRRNNGTLVVQSLHGVFKVKDTTTLQQHLVDGRDMIIIRMPKDFPPFPQKLKFREPQREERICLVTTNFQTKSMSVMVSDTSCTFPSGDGIFWKHWIQTKDGQCGSPLVSTRDGFIVGIHSASNFTNTNNYFTSVPKNFMELLTNQEAQQWVSGWRLNADSVLWGGHKVFMVKPEEPFQPVKEATQL [S124V], the “area with substrate ENLYFQC” value came to 0.116, the “area with substrate ENLYFQD” value came out at 0.0495, the “area with substrate ENLYFQE” value was determined as 0.0679 and the “area with substrate ENLYFQF” value worked out at 0.0428. The “area with substrate ENLYFQG” value was found to be 0.0965, the “area with substrate ENLYFQH” value was found to be 0.0876, the “area with substrate ENLYFQI” value amounted to 0.055 and the “area with substrate ENLYFQK” value was 0.0555. Besides, the “area with substrate ENLYFQL” value came to 0.063, the “area with substrate ENLYFQM” value is 0.0837, the “area with substrate ENLYFQN” value came out at 0.075 and the “area with substrate ENLYFQP” value was determined as 0.0405. For the same variant, the “area with substrate ENLYFQR” value was determined as 0.0502, the “area with substrate ENLYFQS” value was found to be 0.0947, the “area with substrate ENLYFQT” value amounted to 0.0635 and the “area with substrate ENLYFQW” value worked out at 0.059. For the same variant, the “area with substrate ENLYFQY” value worked out at 0.0729.

MGESLFKGPRDYNPISSSICHLTNESDGHTTSLYGIGFGPFIITNKHLFRRNNGTLVVQSLHGVFKVKDETTLQQHLVDGRDMIIIRMPKDFPPFPQKLKFREPQREERICLVTTNFQTKSMSSMVSDTSCTFPSGDGIFWKHWIQTKDGQCGSPLVSTRDGFIVGIHSASNFTNTNNYFTSVPKNFMELLTNQEAQQWVSGWRLNADSVLWGGHKVFMVKPEEPFQPVKEATQL [T70E]: the “area with substrate ENLYFQC” value is 0.052, the “area with substrate ENLYFQE” value was 0.0591, the “area with substrate ENLYFQF” value stood at 0.0602 and the “area with substrate ENLYFQH” value was 0.0892. Moreover, the “area with substrate ENLYFQK” value was found to be 0.0424, the “area with substrate ENLYFQL” value stood at 0.0528, the “area with substrate ENLYFQM” value was 0.0448 and the “area with substrate ENLYFQN” value stood at 0.063. Further, the “area with substrate ENLYFQQ” value was 0.0507, the “area with substrate ENLYFQR” value came out at 0.0565, the “area with substrate ENLYFQS” value was determined as 0.0734 and the “area with substrate ENLYFQW” value came to 0.0472.

For the variant MGESLFKGPRDYNPISSSICHLTNESDGHTTSLYGIGFGPFIITNKHLFRRNNGTLVVQSLHGVFKVKDTTTLQQHLVDGRDMIIIRMPKDFPPFPQKLKFREPQREERICLVTTNFQTKSMSSMVSDTSCAFPSGDGIFWKHWIQTKDGQCGSPLVSTRDGFIVGIHSASNFTNTNNYFTSVPKNFMELLTNQEAQQWVSGWRLNADSVLWGGHKVFMVKPEEPFQPVKEATQL [T132A], the “area with substrate ENLYFQC” value worked out at 0.108, the “area with substrate ENLYFQD” value stood at 0.0497, the “area with substrate ENLYFQE” value amounted to 0.0457 and the “area with substrate ENLYFQF” value worked out at 0.0536. The “area with substrate ENLYFQG” value was 0.122, the “area with substrate ENLYFQH” value was 0.0815, the “area with substrate ENLYFQK” value worked out at 0.0523 and the “area with substrate ENLYFQL” value amounted to 0.0537. Besides, the “area with substrate ENLYFQM” value was determined as 0.0752, the “area with substrate ENLYFQN” value was found to be 0.0681, the “area with substrate ENLYFQP” value turned out to be 0.0606 and the “area with substrate ENLYFQQ” value is 0.086. Besides, the “area with substrate ENLYFQR” value came out at 0.0665, the “area with substrate ENLYFQS” value was 0.108, the “area with substrate ENLYFQT” value came to 0.0754 and the “area with substrate ENLYFQV” value was found to be 0.0499. Moreover, the “area with substrate ENLYFQW” value stood at 0.0649 and the “area with substrate ENLYFQY” value worked out at 0.0964.

Take MGESLFKGPRDYNPISSSICHLTNESDGHTTSLYGIGFGPFIITNKHLFRRNNGTLVVQSLHGVFKVKDTTTLQQHLVDGRDMIIIRMPKDFPPFPQKLKFREGQREERICLVTTNFQTKSMSSMVSDTSCTFPSGDGIFWKHWIQTKDGQCGSPLVSTRDGFIVGIHSASNFTNTNNYFTSVPKNFMELLTNQEAQQWVSGWRLNADSVLWGGHKVFMVKPEEPFQPVKEATQL [P104G]: the “area with substrate ENLYFQC” value was 0.0577, the “area with substrate ENLYFQF” value came to 0.053, the “area with substrate ENLYFQH” value was determined as 0.047 and the “area with substrate ENLYFQI” value came to 0.0539. Moreover, the “area with substrate ENLYFQK” value amounted to 0.0547, the “area with substrate ENLYFQL” value came to 0.0481, the “area with substrate ENLYFQM” value turned out to be 0.0453 and the “area with substrate ENLYFQN” value worked out at 0.0465. Also, the “area with substrate ENLYFQP” value was 0.0446, the “area with substrate ENLYFQQ” value was found to be 0.0261, the “area with substrate ENLYFQR” value worked out at 0.0475 and the “area with substrate ENLYFQS” value came out at 0.0527. Besides, the “area with substrate ENLYFQT” value was determined as 0.0531, the “area with substrate ENLYFQV” value was 0.0597 and the “area with substrate ENLYFQY” value stood at 0.049.

Take MGESLFKGPRDYNPISSSICHLTNESDGHTTSLYGIGFGPFIITNKHLFRRNNGTLVVQSLHGVFKVKDTTTLQQHLVDGRDMIIIRMPKDFPPFPQKLKFREPQREERICLVTTNFQTKHMSSMVSDTSCTFPSGDGIFWKHWIQTKDGQCGSPLVSTRDGFIVGIHSASNFTNTNNYFTSVPKNFMELLTNQEAQQWVSGWRLNADSVLWGGHKVFMVKPEEPFQPVKEATQL [S121H]: the “area with substrate ENLYFQC” value was determined as 0.122, the “area with substrate ENLYFQD” value came out at 0.0725, the “area with substrate ENLYFQG” value is 0.0887 and the “area with substrate ENLYFQI” value was 0.0619. Also, the “area with substrate ENLYFQK” value came to 0.0637, the “area with substrate ENLYFQL” value stood at 0.0674, the “area with substrate ENLYFQM” value was 0.0795 and the “area with substrate ENLYFQN” value is 0.0736. Moreover, the “area with substrate ENLYFQP” value is 0.0476, the “area with substrate ENLYFQQ” value was 0.0861, the “area with substrate ENLYFQR” value is 0.0597 and the “area with substrate ENLYFQS” value came out at 0.112. Further, the “area with substrate ENLYFQT” value amounted to 0.0638 and the “area with substrate ENLYFQY” value worked out at 0.0917.

In the case of MGESLFKGPRDYNPISSSICHLTNESDGHTTSLYGIGFGPFIITNKHLFRRNNGTLVVQSLHGVFKVKDTTTLQQHLVDGRDMIIIRMPKDFPPFPQKLKFREPQREERICLVTTNFQTKWMSSMVSDTSCTFPSGDGIFWKHWIQTKDGQCGSPLVSTRDGFIVGIHSASNFTNTNNYFTSVPKNFMELLTNQEAQQWVSGWRLNADSVLWGGHKVFMVKPEEPFQPVKEATQL [S121W], the “area with substrate ENLYFQC” value is 0.106, the “area with substrate ENLYFQD” value was 0.0781, the “area with substrate ENLYFQF” value came to 0.0774 and the “area with substrate ENLYFQG” value was found to be 0.0924. Also, the “area with substrate ENLYFQH” value amounted to 0.0934, the “area with substrate ENLYFQI” value is 0.065, the “area with substrate ENLYFQK” value came out at 0.0699 and the “area with substrate ENLYFQL” value turned out to be 0.0611. Moreover, the “area with substrate ENLYFQN” value was found to be 0.0554, the “area with substrate ENLYFQP” value came to 0.0598, the “area with substrate ENLYFQR” value stood at 0.0237 and the “area with substrate ENLYFQS” value stood at 0.104. Also, the “area with substrate ENLYFQT” value was 0.0747 and the “area with substrate ENLYFQW” value was determined as 0.072.

For the variant MGESLFKGPRDYNPISSSICHLTNESDGHTTSLYGIGFGPFIITNKHLFRRNNGTLVVQSLHGVFKVKDTTTLQQHLVDGRDMIIIRMPKDFPPFPQALKFREPQREERICLVTTNFQTKSMSSMVSDTSCTFPSGDGIFWKHWIQTKDGQCGSPLVSTRDGFIVGIHSASNFTNTNNYFTSVPKNFMELLTNQEAQQWVSGWRLNADSVLWGGHKVFMVKPEEPFQPVKEATQL [K98A], the “area with substrate ENLYFQC” value is 0.126, the “area with substrate ENLYFQE” value was 0.0836, the “area with substrate ENLYFQG” value was 0.1 and the “area with substrate ENLYFQH” value is 0.0872. For the same variant, the “area with substrate ENLYFQI” value was 0.062, the “area with substrate ENLYFQN” value worked out at 0.0882, the “area with substrate ENLYFQP” value is 0.0596 and the “area with substrate ENLYFQR” value stood at 0.0652. Further, the “area with substrate ENLYFQS” value was 0.102, the “area with substrate ENLYFQT” value amounted to 0.0718 and the “area with substrate ENLYFQV” value came out at 0.0559.

For the variant MGESLFKGPRDYNPISSSICHLTNESDGHTTSLYGIGFGPFIITNKHLFRRNNGTLVVQSLHGVFKVKDTTTLQQHLVDGRDMIIIRMPKDFPPFPQCLKFREPQREERICLVTTNFQTKSMSSMVSDTSCTFPSGDGIFWKHWIQTKDGQCGSPLVSTRDGFIVGIHSASNFTNTNNYFTSVPKNFMELLTNQEAQQWVSGWRLNADSVLWGGHKVFMVKPEEPFQPVKEATQL [K98C], the “area with substrate ENLYFQC” value turned out to be 0.1, the “area with substrate ENLYFQE” value was found to be 0.0614, the “area with substrate ENLYFQG” value amounted to 0.0848 and the “area with substrate ENLYFQH” value came out at 0.0852. Further, the “area with substrate ENLYFQI” value was 0.0596, the “area with substrate ENLYFQK” value amounted to 0.0653, the “area with substrate ENLYFQL” value was 0.0629 and the “area with substrate ENLYFQN” value was 0.0796. Also, the “area with substrate ENLYFQQ” value amounted to 0.081, the “area with substrate ENLYFQR” value was found to be 0.0608, the “area with substrate ENLYFQS” value came out at 0.0977 and the “area with substrate ENLYFQT” value amounted to 0.0628. For the same variant, the “area with substrate ENLYFQY” value turned out to be 0.0762.
